{"source": "PubChem BioAssay AID602310", "about": "(National Center for Advancing Translational Sciences (NCATS), 2012)", "note": "In all, about 410,000 compounds went through this assay and about 310 (0.076%) were called active. This list was built around the results that the source calls inconclusive (neither active nor inactive); the mix of calls is not that of the screen. The call rests on the fitted dose curve; in most records, active means well fitted curve in the direction sought with a large enough effect; inconclusive means small, poorly fitted or top-dose-only effect; inactive means flat fitted curve, though single readings scatter. Potencies beside an inconclusive call are fits to weak or partial responses and may not hold up. On the % scale 0 is the no-effect control and ±100 the full control effect; potency means the concentration at half of the fitted maximal effect; tags describe the fitted curve by direction and shape.", "data": [{"molecular_target": "DNA dC->dU-editing enzyme APOBEC-3G (Homo sapiens) (UniProt Q9HC16)", "sequence (Q9HC16 whole entry, looked up)": "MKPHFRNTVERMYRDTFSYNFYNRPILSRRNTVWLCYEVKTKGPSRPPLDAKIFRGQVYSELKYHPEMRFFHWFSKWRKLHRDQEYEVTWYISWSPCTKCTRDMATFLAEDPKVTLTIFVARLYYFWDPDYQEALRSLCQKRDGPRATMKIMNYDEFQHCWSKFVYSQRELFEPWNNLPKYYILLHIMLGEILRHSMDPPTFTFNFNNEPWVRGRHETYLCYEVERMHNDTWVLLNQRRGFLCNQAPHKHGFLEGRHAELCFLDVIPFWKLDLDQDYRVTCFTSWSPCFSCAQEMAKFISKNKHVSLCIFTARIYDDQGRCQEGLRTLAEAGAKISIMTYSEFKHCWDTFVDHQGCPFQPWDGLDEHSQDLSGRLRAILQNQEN", "assay": "qHTS for Inhibitors of Vif-A3G Interactions: qHTS; further: nearly all actives have a fitted effect of over 60% in size;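 on activity, negative = active: hits raise eYFP signal because A3G escapes Vif-driven loss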", "settings": "HeLa A3G-eYFP + Vif (tagged APOBEC3G with the HIV-1 protein that degrades it), YFP fluorescence, overnight; series mostly up to 46.1 µM; activity, negative = active: at the top concentration", "procedure,_shortened": "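Read-out is eYFP fluorescence (Ex 488/Em 500-530) from Vif-expressing HeLa A3G-eYFP cells; more signal means A3G escaped Vif-mediated degradation. Cells plated overnight, compound pinned in, incubated overnight at 37 deg C.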", "values": [{"smiles": "CC(C)(C)c1ccc(/C=N/OCC(=O)NCc2ccccc2)cc1", "Potency": "inconclusive: 15.8 µM [inhibitor, single point]"}, {"smiles": "COCCNC(=S)N/N=C/c1c2ccccc2cc2ccccc12", "activity, negative = active": "inactive: -4.82%"}, {"smiles": "C=C(C)C(=O)O[C@H]1C/C(C)=C\\C(=O)/C=C(\\C)[C@H](O)[C@@H]2OC(=O)C(=C)[C@@H]21", "Potency": "inconclusive: 2.82 µM [inhibitor, full curve, poor fit]"}, {"smiles": "Cc1ccc(OCC(=O)OCc2cc(=O)n3c(C)csc3n2)cc1", "activity, negative = active": "inactive: -0.923%"}, {"smiles": "Cc1ccc(OCCCC(=O)NCc2ccco2)cc1", "activity, negative = active": "inactive: -0.318%"}, {"smiles": "O=C(N/N=C/c1c(O)ccc2ccccc12)c1cccc(C(F)(F)F)c1", "Potency": "inconclusive: 20 µM [inhibitor, single point]"}, {"smiles": "Cc1ccc2oc(C(=O)Nc3sc4c(c3C(=O)NCc3ccccc3)CCCC4)cc(=O)c2c1", "activity, negative = active": "inactive: -3.15%"}, {"smiles": "O=C(Cc1ccc([N+](=O)[O-])cc1)Nc1cccc(C(=O)N2CCCC2)c1", "Potency": "inconclusive: 25.1 µM [inhibitor, single point]"}, {"smiles": "CC(C)C[C@H]1CN([C@@H](Cc2ccccc2)CN2CCC[C@@H]2CN2C(=O)C(=O)NC[C@@H]2Cc2ccccc2)C(=O)C(=O)N1CC1CCCCC1", "Potency": "inconclusive: 28.2 µM [inhibitor, single point]"}, {"smiles": "COC(=O)c1ccc(NC(=O)N2CCOCC2)cc1", "activity, negative = active": "inactive: -8.89%"}, {"smiles": "NC(=O)c1ccc2c(=O)n3c(-c4cc(Cl)c(N)c(Cl)c4)csc3nc2c1", "Potency": "inconclusive: 7.94 µM [inhibitor, partial curve, poor fit]"}, {"smiles": "COc1ccc(OC)c2sc(NC(=O)CCS(=O)(=O)c3ccccc3)nc12", "Potency": "active: 11.2 µM"}, {"smiles": "S=C(Nc1ccccc1)c1ccccn1", "Potency": "inconclusive: 7.08 µM [inhibitor, partial curve, poor fit]"}, {"smiles": "O=C(NCc1cccnc1)c1sc2ccccc2c1Cl", "activity, negative = active": "inactive: 0.364%"}, {"smiles": "Cc1cccc(-c2nn(-c3ccccc3)cc2CNCCO)c1", "activity, negative = active": "inactive: -1.5%"}, {"smiles": "Cc1cccc(-n2cnc3cc(C(=O)NCC4CCCO4)ccc32)c1", "note": "(stereo not given)", "Potency": "inconclusive: 10 µM [inhibitor, partial curve]"}, {"smiles": "Cc1c2cnn(CC(=O)NCc3ccc(F)cc3)c(=O)c2c(C)n1Cc1ccccc1Cl", "Potency": "inconclusive: 12.6 µM [inhibitor, single point]"}, {"smiles": "NC(=O)c1c(NC(=O)c2ccccc2)sc2c1CCN(Cc1ccccc1)C2", "Potency": "inconclusive: 10 µM [inhibitor, partial curve]"}, {"smiles": "Cc1ccc(-c2c(C)n3c4c(=O)n(C)c(=O)n(C)c4nc3n2CCCO)cc1", "activity, negative = active": "inactive: -22.7%"}, {"smiles": "CC[n+]1c(/C=C2/C=C(C)CC(C)(C)C2)sc2ccc(OC)cc21", "Potency": "inconclusive: 25.1 µM [inhibitor, single point]"}, {"smiles": "Cc1cc2oc3ccc(NCCCn4ccnc4)cc3c(=O)c2cc1C", "Potency": "inconclusive: 22.4 µM [inhibitor, single point]"}, {"smiles": "Cc1ccc(NC(=S)NC(=O)C2CCCC2)c(Br)c1", "activity, negative = active": "inactive: -2.43%"}, {"smiles": "Cc1ccc(-n2ncc3c2CC(C)(C)CC3NC(=O)c2ccccn2)cc1", "note": "(stereo not given)", "activity, negative = active": "inactive: 1.19%"}, {"smiles": "Cn1cccc1/C=C1\\SC(=Nc2cccc(O)c2)NC1=O", "Potency": "inconclusive: 12.6 µM [inhibitor, partial curve]"}, {"smiles": "Nc1nc(SCc2ccc(Cl)cc2Cl)nc2nc3c(cc12)CCCC3", "Potency": "inconclusive: 22.4 µM [inhibitor, single point]"}, {"smiles": "CCOC(=O)CN1C(=O)S/C(=C/C=C/c2ccc(N(C)C)cc2)C1=O", "Potency": "inconclusive: 4.47 µM [inhibitor, single point]"}, {"smiles": "COc1ccc(C=NCCc2ccc(OC)c(OC)c2)cc1OC", "activity, negative = active": "inactive: 0.155%"}, {"smiles": "CCN(CC)CCNC(=O)c1ccc(NC(=O)c2cccc(S(=O)(=O)N3CCc4ccccc43)c2)cc1", "Potency": "inconclusive: 35.5 µM [inhibitor, single point]"}, {"smiles": "Cc1ccc2oc(=O)c3cc(C(=O)N(Cc4ccccc4)C(C)C)sc3c2c1", "activity, negative = active": "inactive: -4.42%"}, {"smiles": "C=C(C)CN(CC)c1nc(N)c2c(N)nc3c(c2c1C#N)CC(=O)N3C12CC3CC(CC(C3)C1)C2", "activity, negative = active": "inactive: 0.641%"}, {"smiles": "CCC(=O)c1cn(CC(=O)NCc2ccco2)c2ccccc12", "activity, negative = active": "inactive: -0.122%"}, {"smiles": "Cc1nc2c(ccc3nc(NC(=O)Cc4ccccc4)sc32)s1", "Potency": "inconclusive: 10 µM [inhibitor, partial curve, poor fit]"}, {"smiles": "O=C(NCc1nnc2c(C(F)(F)F)cc(Cl)cn12)c1cccs1", "activity, negative = active": "inactive: 2.34%"}, {"smiles": "N=C1S/C(=C\\c2cccc3ccccc23)C(=O)N1c1ccc(F)cc1", "Potency": "inconclusive: 2.51 µM [inhibitor, full curve]"}, {"smiles": "COc1ccccc1N1CCN(C(=O)C(=O)c2c(C)n(C)c3ccccc23)CC1", "Potency": "inconclusive: 35.5 µM [inhibitor, single point]"}, {"smiles": "Cc1cccc(C)c1OCCNC(=O)C(=O)NCc1ccco1", "Potency": "inconclusive: 2.24 µM [inhibitor, full curve, poor fit]"}, {"smiles": "CC(=O)Nc1cc(-c2ccc(N3CCN(C)CC3)cc2)cn2c(-c3ccc(F)cc3)cnc12", "Potency": "inconclusive: 25.1 µM [inhibitor, single point]"}, {"smiles": "CCOC(=O)C(C)Sc1nc(-c2cccs2)ccc1C#N", "note": "(stereo not given)", "Potency": "inconclusive: 14.1 µM [inhibitor, single point]"}, {"smiles": "O=C(N/N=C/C(Br)=C/c1ccccc1)C(O)c1ccccc1", "note": "(stereo not given)", "Potency": "inconclusive: 35.5 µM [inhibitor, single point]"}, {"smiles": "Nc1ccc(-c2nc3ccccc3o2)cc1", "Potency": "inconclusive: 20 µM [inhibitor, single point]"}, {"smiles": "CC(/C=N/NC(=O)c1cc(-c2ccccc2)nc2ccccc12)=C\\c1ccco1", "Potency": "inconclusive: 1.26 µM [inhibitor, full curve, poor fit]"}, {"smiles": "COc1cccc(CN(CC2CCCO2)S(=O)(=O)c2ccc(S(=O)(=O)N(C)C)cc2)c1", "note": "(stereo not given)", "activity, negative = active": "inactive: 0.343%"}, {"smiles": "C=CCn1c(SCc2c(C)noc2C)nc2ccccc2c1=O", "Potency": "inconclusive: 1.12 µM [inhibitor, full curve, poor fit]"}, {"smiles": "O=C(N/N=C/c1cn(Cc2cccc(F)c2)c2ccccc12)c1cc(O)cc(O)c1", "activity, negative = active": "inactive: -1.13%"}, {"smiles": "COc1ccc(N=Cc2cc3c(cc2O)OC(N)=C(C#N)C3c2ccccc2)cc1", "note": "(stereo not given)", "Potency": "inconclusive: 2 µM [inhibitor, partial curve, poor fit]"}]}]}
